By IC50 is meant the dose at which the fit gives 50% viability; a fit beyond the top or the lowest dose is shown as a bound at that dose. For AUC the same curve is integrated over the 256-fold range of doses and scaled to a fraction; values near 1 show little effect. Any top dose called inferred was calculated from the reported fits.

Compound in the test: Cn1cc(C2=C(c3cn(C4CCN(Cc5ccccn5)CC4)c4ccccc34)C(=O)NC2=O)c2ccccc21 [LY317615]
In words: Viability of human cancer cell lines after 72 h of drug (GDSC screen). The note with it: top dose inferred. The protocol: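 Human cancer cell lines in 384-well plates, medium with 10% serum, drug for 72 h over a 256-fold dose range (nine 2-fold or five 4-fold steps up to the top dose). Adherent lines were fixed and stained with the nucleic acid dye Syto60, suspension lines read with resazurin; signal relative to control wells, capped at 0 and 100%. One two-parameter sigmoid per drug and line, fitted in a mixed model over all curves with the slope shared within a line.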
By IC50 is commonly meant the point on the concentration scale where inhibition reaches its midpoint. Take “IMR-5 (neuroblastoma, adherent, top dose 20 µM)”: the AUC is 0.91 and the half-inhibitory concentration (IC50) is more than 20 µM.

“SUP-M2 (anaplastic large cell lymphoma, suspension, top dose 20 µM)”: the AUC was found to be 0.867 and the IC50 amounted to 11.4 µM.

With “WSU-NHL (lymphoid neoplasm, suspension, top dose 20 µM)”, the AUC worked out at 0.848 and the IC50 was 12.3 µM.

As to “G-361 (melanoma, adherent, top dose 20 µM)”, the AUC came to 0.912 and the IC50 was more than 20 µM.

“SW962 (urogenital system, adherent, top dose 20 µM)”: the AUC was 0.929 and the IC50 is more than 20 µM.

For the cell line “H2722 (mesothelioma, adherent, top dose 20 µM)”, the AUC amounted to 0.984 and the IC50 was more than 20 µM.

Regarding “HT-1080 (fibrosarcoma, adherent, top dose 20 µM)”, the AUC was 0.959 and the IC50 is more than 20 µM.

Regarding “HC-1 (hairy cell leukaemia, suspension, top dose 20 µM)”, the AUC came to 0.823 and the IC50 amounted to 11.2 µM.

For “HA7-RCC (kidney, adherent, top dose 20 µM)”, the AUC was determined as 0.898 and the concentration for half-maximal inhibition (IC50) is more than 20 µM.

As to “HCC-44 (lung adenocarcinoma, adherent, top dose 20 µM)”, the AUC came out at 0.435 and the IC50 was determined as 0.834 µM.

In the case of “OACp4C (oesophagus, adherent, top dose 20 µM)”, the AUC is 0.946 and the IC50 is more than 20 µM.

Turning to “NB5 (neuroblastoma, adherent, top dose 20 µM)”, the AUC was determined as 0.973 and the IC50 was more than 20 µM.

“PCI-30 (head and neck, adherent, top dose 20 µM)”: the AUC turned out to be 0.944 and the IC50 is more than 20 µM.

As for “NCI-H1417 (small cell lung carcinoma, suspension, top dose 20 µM)”, the AUC worked out at 0.941 and the IC50 was more than 20 µM.

As for “COR-L88 (small cell lung carcinoma, adherent, top dose 20 µM)”, the AUC stood at 0.904 and the IC50 is more than 20 µM.

On to “JHOS-3 (ovary, adherent, top dose 20 µM)”, for which the AUC is 0.753 and the IC50 is 8.38 µM.

On to “KNS-42 (glioma, adherent, top dose 20 µM)”, for which the AUC stood at 0.939 and the IC50 was more than 20 µM.

For the cell line “HMV-II (melanoma, adherent, top dose 20 µM)”, the AUC is 0.827 and the IC50 came to 16.1 µM.

With “PF-382 (T-cell lymphoblastic leukaemia, suspension, top dose 20 µM)”, the AUC amounted to 0.542 and the IC50 turned out to be 1.6 µM.

Turning to “KP-2 (pancreas, adherent, top dose 20 µM)”, the AUC was 0.634 and the IC50 came to 3.03 µM.

As to “RS4-11 (leukaemia, suspension, top dose 20 µM)”, the AUC is 0.645 and the half-inhibitory concentration (IC50) is 3.02 µM.

For the cell line “NMC-G1 (glioma, adherent, top dose 20 µM)”, the AUC came out at 0.514 and the 50% inhibitory concentration (IC50) was 1.38 µM.

As for “OVTOKO (ovary, adherent, top dose 20 µM)”, the AUC is 0.774 and the IC50 is 10.1 µM.

Take “NTERA-2 cl.D1 (testis, adherent, top dose 20 µM)”: the AUC worked out at 0.879 and the IC50 was more than 20 µM.

As to “TOV-112D (ovary, adherent, top dose 20 µM)”, the AUC is 0.618 and the IC50 turned out to be 2.65 µM.

As to “RCC-AB (kidney, adherent, top dose 20 µM)”, the AUC worked out at 0.489 and the IC50 came to 1.16 µM.

“NCI-H2347 (lung adenocarcinoma, adherent, top dose 20 µM)”: the AUC came to 0.649 and the IC50 was 3.55 µM.

For “AMO-1 (haematopoietic neoplasm, suspension, top dose 20 µM)”, the AUC was 0.827 and the IC50 amounted to 9.93 µM.

For the cell line “NB6 (neuroblastoma, adherent, top dose 20 µM)”, the AUC was determined as 0.948 and the IC50 is more than 20 µM.

On to “SAT (head and neck, adherent, top dose 20 µM)”, for which the AUC is 0.959 and the IC50 was more than 20 µM.

Regarding “SF295 (glioma, adherent, top dose 20 µM)”, the AUC was determined as 0.904 and the IC50 was more than 20 µM.

For “BV-173 (chronic myeloid leukaemia, suspension, top dose 20 µM)”, the AUC was 0.704 and the IC50 worked out at 4.32 µM.

On to “BB49-HNC (head and neck, adherent, top dose 20 µM)”, for which the AUC was found to be 0.973 and the IC50 is more than 20 µM.

With “H2818 (mesothelioma, adherent, top dose 20 µM)”, the AUC turned out to be 0.967 and the IC50 was more than 20 µM.

Consider “GRANTA-519 (B-cell lymphoma, suspension, top dose 20 µM)”, for which the AUC amounted to 0.732 and the IC50 was 5.26 µM.

For the cell line “MOLT-13 (T-cell lymphoblastic leukaemia, suspension, top dose 20 µM)”, the AUC came out at 0.697 and the IC50 was determined as 4.13 µM.

Regarding “NCI-H1573 (lung adenocarcinoma, adherent, top dose 20 µM)”, the AUC was determined as 0.817 and the IC50 stood at 10.8 µM.

As for “UACC-257 (melanoma, adherent, top dose 20 µM)”, the AUC was 0.812 and the IC50 is 14.1 µM.

For “BB65-RCC (kidney, adherent, top dose 20 µM)”, the AUC was 0.709 and the IC50 came out at 5.38 µM.

On to “Hep 3B2_1-7 (liver, adherent, top dose 20 µM)”, for which the AUC was 0.987 and the IC50 was more than 20 µM.

On to “SNU-398 (liver, adherent, top dose 20 µM)”, for which the AUC came out at 0.983 and the IC50 is more than 20 µM.

On to RMG-I (ovary, adherent, top dose 20 µM), for which the AUC was 0.931 and the concentration for half-maximal inhibition (IC50) is more than 20 µM.

As to “RVH-421 (melanoma, adherent, top dose 20 µM)”, the AUC was determined as 0.674 and the IC50 came out at 4.59 µM.

Turning to “NCI-H510A (small cell lung carcinoma, semi-adherent, top dose 20 µM)”, the AUC was found to be 0.951 and the IC50 was more than 20 µM.

As for SJSA-1 (bone, adherent, top dose 20 µM), the AUC came out at 0.939 and the concentration for half-maximal inhibition (IC50) is more than 20 µM.

Turning to “SW1116 (large intestine, adherent, top dose 20 µM)”, the AUC worked out at 0.986 and the IC50 is more than 20 µM.

On to “OCI-AML5 (acute myeloid leukaemia, suspension, top dose 20 µM)”, for which the AUC came to 0.881 and the IC50 is 17.8 µM.

Turning to “Hs-578-T (breast, adherent, top dose 20 µM)”, the AUC amounted to 0.981 and the IC50 is more than 20 µM.

In the case of “LB647-SCLC (small cell lung carcinoma, semi-adherent, top dose 20 µM)”, the AUC is 0.85 and the IC50 stood at 18.1 µM.

For “NCI-H661 (large cell lung carcinoma, adherent, top dose 20 µM)”, the AUC was 0.912 and the IC50 was more than 20 µM.

For “EMC-BAC-2 (lung adenocarcinoma, adherent, top dose 20 µM)”, the AUC worked out at 0.73 and the half-inhibitory concentration (IC50) stood at 6.49 µM.

For “HuO9 (osteosarcoma, adherent, top dose 20 µM)”, the AUC amounted to 0.857 and the IC50 is 19.2 µM.

On to “Hs939-T (melanoma, adherent, top dose 20 µM)”, for which the AUC turned out to be 0.986 and the IC50 was more than 20 µM.

For the cell line “SCC-15 (head and neck, adherent, top dose 20 µM)”, the AUC turned out to be 0.953 and the IC50 was more than 20 µM.

“LB2241-RCC (kidney, adherent, top dose 20 µM)”: the AUC was 0.982 and the IC50 was more than 20 µM.

For the cell line “NUGC-3 (stomach, adherent, top dose 20 µM)”, the AUC is 0.956 and the IC50 is more than 20 µM.

Turning to “PA-TU-8902 (pancreas, adherent, top dose 20 µM)”, the AUC turned out to be 0.961 and the half-maximal inhibitory concentration (IC50) was more than 20 µM.

“NB7 (neuroblastoma, adherent, top dose 20 µM)”: the AUC is 0.834 and the IC50 worked out at 13.9 µM.

As to “A204 (rhabdomyosarcoma, adherent, top dose 20 µM)”, the AUC was determined as 0.774 and the IC50 was 10.3 µM.

As to “EW-11 (Ewing sarcoma, adherent, top dose 20 µM)”, the AUC came to 0.981 and the IC50 was more than 20 µM.

Take “KARPAS-422 (B-cell lymphoma, suspension, top dose 20 µM)”: the AUC was determined as 0.931 and the IC50 is more than 20 µM.

Turning to “L-428 (Hodgkin lymphoma, suspension, top dose 20 µM)”, the AUC turned out to be 0.934 and the IC50 was more than 20 µM.

With “P32-ISH (Burkitt lymphoma, suspension, top dose 20 µM)”, the AUC came to 0.879 and the IC50 turned out to be 12 µM.

Consider “TCCSUP (bladder, adherent, top dose 20 µM)”, for which the AUC stood at 0.981 and the IC50 was more than 20 µM.

Take RKN (ovary, adherent, top dose 20 µM): the AUC came to 0.98 and the IC50 is more than 20 µM.

Take “SNB75 (glioma, adherent, top dose 20 µM)”: the AUC came out at 0.904 and the IC50 was more than 20 µM.

Source of the values: the supplement of paper PMC4967469.
